Out of some 310,000 compounds screened, about 14,000 (4.5%) showed an effect of 50% or more. Effects have a minus sign here. The list shows a part of the results.
What follows are compounds tested against human ether-à-go-go-related gene (hERG) potassium channel (human, UniProt Q12809) (assay: primary screen, population patch clamp on CHO cells stably expressing hERG).
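Note: peak tail current of the secondary pulse compared with the same well before compound.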

Sequence of human ether-à-go-go-related gene (hERG) potassium channel (Q12809 whole entry, looked up): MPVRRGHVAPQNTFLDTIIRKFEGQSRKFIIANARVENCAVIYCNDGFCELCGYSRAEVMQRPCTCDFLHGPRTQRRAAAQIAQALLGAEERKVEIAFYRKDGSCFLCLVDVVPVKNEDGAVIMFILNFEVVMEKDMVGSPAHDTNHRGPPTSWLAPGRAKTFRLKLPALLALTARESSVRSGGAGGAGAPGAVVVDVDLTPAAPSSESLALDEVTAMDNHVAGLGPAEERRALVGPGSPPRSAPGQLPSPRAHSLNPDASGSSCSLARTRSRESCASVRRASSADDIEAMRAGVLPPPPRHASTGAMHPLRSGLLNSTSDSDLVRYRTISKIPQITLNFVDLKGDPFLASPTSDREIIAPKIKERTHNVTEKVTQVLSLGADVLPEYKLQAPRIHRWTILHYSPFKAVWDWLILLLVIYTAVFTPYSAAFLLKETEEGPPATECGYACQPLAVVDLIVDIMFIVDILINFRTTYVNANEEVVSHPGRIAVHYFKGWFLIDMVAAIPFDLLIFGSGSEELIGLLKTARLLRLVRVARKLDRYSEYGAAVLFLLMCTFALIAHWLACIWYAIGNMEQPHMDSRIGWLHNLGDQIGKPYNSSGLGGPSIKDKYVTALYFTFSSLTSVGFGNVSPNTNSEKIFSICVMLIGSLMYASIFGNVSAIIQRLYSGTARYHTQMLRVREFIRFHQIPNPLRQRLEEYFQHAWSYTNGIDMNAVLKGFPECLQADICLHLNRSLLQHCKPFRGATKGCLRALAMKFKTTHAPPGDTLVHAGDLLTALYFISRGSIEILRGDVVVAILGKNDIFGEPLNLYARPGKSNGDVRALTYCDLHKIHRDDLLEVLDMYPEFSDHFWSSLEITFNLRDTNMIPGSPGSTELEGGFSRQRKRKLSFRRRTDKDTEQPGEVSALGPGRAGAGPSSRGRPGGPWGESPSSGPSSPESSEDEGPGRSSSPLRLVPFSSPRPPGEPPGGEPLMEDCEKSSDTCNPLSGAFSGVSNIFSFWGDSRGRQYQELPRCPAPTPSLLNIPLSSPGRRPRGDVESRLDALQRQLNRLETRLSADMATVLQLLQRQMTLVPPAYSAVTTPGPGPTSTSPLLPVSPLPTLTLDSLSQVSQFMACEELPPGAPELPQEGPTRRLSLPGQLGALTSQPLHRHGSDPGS

| Compound | hERG current change (%, negative = inhibition) at 10uM |
| --- | --- |
| CN(C)CCCN(C(=O)c1ccc([N+](=O)[O-])o1)c1nc2cc3c(cc2s1)OCO3.Cl | -71.8% |
| COc1cc(NC(=O)CN2CCN(c3ccccc3F)CC2)c(C)cc1[N+](=O)[O-] | 28.2% |
| O=C1Cc2ccccc2C(c2ccc(Cl)cc2)N1 (stereo not shown) | -0.179% |
| COc1cc(Cl)ccc1OCc1cc(C(=O)N2CCC(N(C)C)C2)no1 (stereo not shown) | -26.6% |
| COC(=O)CCC(=O)N(CCN(C(=O)CCC(=O)OC)c1ccccc1)c1ccccc1 | 9.35% |
| CC1(c2nnc(-c3ccncc3)o2)CC(c2ccc(Cl)cc2)=NO1 (stereo not shown) | -26.8% |
| CC(C)Cn1cc(Cl)c(=O)n(CC(C)C)c1=O | 35.1% |
| Cc1ccc(S(=O)(=O)NCc2ccccc2)cc1C(=O)NCc1ccccn1 | -0.432% |
| Cc1ccc(C2C3=C(Nc4[nH]n(-c5ccccc5)c(=O)c42)c2ccccc2C3=O)cc1 (stereo not shown) | -12.1% |
| CSc1ccccc1OCc1cc(C(=O)NCCc2ccco2)no1 | 4.27% |
| Cl.Fc1ccc(Nc2nc(N/N=C/c3ccco3)nc(N3CCCCC3)n2)cc1 | 35.1% |
| Cc1cc(C(=O)N/N=C\c2cc(C(C)(C)C)ccc2O)n[nH]1 | -40.5% |
| CCOC(=O)c1ccc(NC(=O)CSc2nnc(C3CC3)n2C)cc1 | 1.76% |
| COc1ccc(OC)c(C2C(C(=O)c3ccccc3)=C(C)Nc3nc4ccccc4n32)c1 (stereo not shown) | 6.63% |
| Cc1ccc(N(CC(=O)NCc2cccnc2)S(C)(=O)=O)cc1C | -1.16% |
| Cc1ccc(-c2nnc(NC(=O)c3ccco3)s2)cc1 | 8.92% |
| COc1ccc(N2CCN(CCCNC(=O)C3CCCN(S(=O)(=O)c4cnc[nH]4)C3)CC2)cc1 (stereo not shown) | 1.63% |
| CCNc1c(N)c(=O)oc2ccccc12 | 5.57% |
| CC(c1nnc(SCC(=O)c2c(N)n(C3CC3)c(=O)[nH]c2=O)n1-c1ccc(F)cc1)N(C)C (stereo not shown) | 13.2% |
| COCc1ccc(C(=O)N(C)CC2CCCN(CCc3ccc(OC)cc3)C2)o1 (stereo not shown) | -69.5% |
| COc1ccc2c(c1)c(C(=O)CN1CCC(C(N)=O)CC1)c(C)n2C | 10.5% |
| CCN(CC)S(=O)(=O)c1cc(NS(=O)(=O)c2cc(Cl)ccc2Cl)ccc1C | -9.73% |
| CCCNC(C)C(=O)Nc1ccccc1C.Cl (stereo not shown) | 15.8% |
| O=C(COc1ccccc1Cl)NCCc1ccc2c(c1)OCCO2 | -6.04% |
| COc1ccc(C(CNC(=O)c2ccccc2C)N2CCCC2)cc1 (stereo not shown) | -16.2% |
| CCCN1C(=O)S/C(=C/c2ccc(N3CCOCC3)o2)C1=O | 4.9% |
| Cc1ccc([N+](=O)[O-])cc1S(=O)(=O)NCC1COc2ccccc2O1 (stereo not shown) | -10.6% |
| COc1ccccc1CNC(=O)c1cc(C(C)C)nc2ccccc12 | -5.47% |

| Compound | hERG current change (%, negative = inhibition) at 10uM |
| --- | --- |
| Cc1ccc(Oc2cc(-n3nc(C)cc3C)ncn2)cc1 | -18.8% |
| CN(C(=O)c1ccc(NC(=O)Cc2cccc(NC(=O)C3CCCN(C(=O)C4CCCCC4)C3)c2)cc1)C1CCCC1 (stereo not shown) | 7.55% |
| Nn1c(=O)[nH]c2ccccc2c1=O | 18.1% |
| COc1ccc(NC(=O)C(NC(=O)OC(C)(C)C)C(C)OCc2ccccc2)cc1 (stereo not shown) | 3.91% |
| O=C(COC(=O)CCCSc1nc2ccccc2[nH]1)NC(=O)NC1CCCC1 | -2.19% |
| Cc1ccccc1CN(c1ccc(C(=O)Nc2ccccc2C(=O)N2CCCC2)cc1)S(C)(=O)=O | -19.8% |
| CN(Cc1nc2ccccc2[nH]1)C(=O)C1CCC(=O)N(C2CCCC2)C1 (stereo not shown) | 1.99% |
| CC1(C)CC(=O)C2=C(C1)OC(N)=C(C#N)C2CCc1ccccc1 (stereo not shown) | 1.07% |
| COc1ccccc1OC(C)C(=O)Nc1ccccc1C(=O)NCc1cccnc1 (stereo not shown) | -4.35% |
| N#Cc1ccc(N2CCN(c3ccc(F)cc3)CC2)cc1 | -16.9% |
| O=C(Nc1ccccc1F)N(Cc1ccc(F)cc1)Cc1nc2ccccc2c(=O)[nH]1 | 23.3% |
| CS(=O)(=O)N(Cc1ccc(C(=O)NN=C2CCCCCC2)cc1)c1ccccc1 | -7.08% |
| CC(=O)C1=C(O)C(=O)N(c2nccs2)C1c1ccc(F)cc1 (stereo not shown) | -1.19% |
| COc1ccc2nc(C)cc(N3CCN(c4ccccc4)CC3)c2c1 | -66.7% |
| Cc1nc2cc(NC(=O)Nc3cccc4ccccc34)ccc2n1C | 2.53% |
| CCCc1cc(=O)[nH]c(SCC(=O)Nc2ccc(OCc3ccccc3)cc2)n1 | 1.5% |
| CNC(=O)c1ccc(CN(C)CC(=O)Nc2ccccc2C(=O)NC2CC2)cc1 | -12.2% |
| N#Cc1ccc(C(=O)Nc2cccc3ncccc23)c(F)c1 | -40.2% |
| O=C(CSCc1ccc(F)cc1)NCc1cccs1 | -5.98% |
| CCOC(=O)Cn1c2ccccc2c2nc3ccccc3nc21 | 6.84% |
| C=C(C)CN(CC)c1ccc(N2C(=O)CCCC2=O)cc1[N+](=O)[O-] | 16.7% |
| Cc1cc(-c2ccc(NC(=O)[C@@H]3CCCC[C@@H]3C(=O)O)c(C)c2)ccc1NC(=O)[C@@H]1CCCC[C@@H]1C(=O)O | 16.2% |
| O=C(Nc1ccc(N2CCOCC2)cc1)c1cc(-c2ccncc2)nc2ccccc12 | -44.2% |
| CCC(=O)N1CCc2cc(Br)cc(S(=O)(=O)NCc3ccccc3OC)c21 | 16.9% |
| O=C(O)CCCCCCCCCCCc1ccccc1 | 12.7% |
| Cn1c(N)c(S(=O)(=O)NCc2ccc(F)cc2)c(=O)n(C)c1=O | 9.15% |
| CSc1nsc(SCC(=O)Nc2nncs2)n1 | 21.2% |
